From PubChem BioAssay AID504339 (National Center for Advancing Translational Sciences (NCATS), 2011)
Out of some 390,000 compounds screened, about 17,000 (4.4%) were called active. Inconclusive means that the source gave no clear call. Such entries were picked first, then a sample of the others. Calls come from the whole dose curve; as a rule, active = well fitted inhibition curve with a large enough effect; inconclusive = small, poorly fitted or top-dose-only effect; inactive = no such curve, though single readings can be large or run the other way. Potencies beside an inconclusive call are fits to weak or partial responses and may not hold up.

These compounds were tested against Lysine-specific demethylase 4A (Homo sapiens) (UniProt O75164) (assay: qHTS Assay for Inhibitors of JMJD2A-Tudor Domain). Conditions: AlphaScreen JMJD2A-Tudor / H3K4me3 peptide binding; activity change, negative = inhibition: at 114 µM (top of the series).
UniProt O75164, sequence (O75164 whole entry, looked up, the tested form may be a part): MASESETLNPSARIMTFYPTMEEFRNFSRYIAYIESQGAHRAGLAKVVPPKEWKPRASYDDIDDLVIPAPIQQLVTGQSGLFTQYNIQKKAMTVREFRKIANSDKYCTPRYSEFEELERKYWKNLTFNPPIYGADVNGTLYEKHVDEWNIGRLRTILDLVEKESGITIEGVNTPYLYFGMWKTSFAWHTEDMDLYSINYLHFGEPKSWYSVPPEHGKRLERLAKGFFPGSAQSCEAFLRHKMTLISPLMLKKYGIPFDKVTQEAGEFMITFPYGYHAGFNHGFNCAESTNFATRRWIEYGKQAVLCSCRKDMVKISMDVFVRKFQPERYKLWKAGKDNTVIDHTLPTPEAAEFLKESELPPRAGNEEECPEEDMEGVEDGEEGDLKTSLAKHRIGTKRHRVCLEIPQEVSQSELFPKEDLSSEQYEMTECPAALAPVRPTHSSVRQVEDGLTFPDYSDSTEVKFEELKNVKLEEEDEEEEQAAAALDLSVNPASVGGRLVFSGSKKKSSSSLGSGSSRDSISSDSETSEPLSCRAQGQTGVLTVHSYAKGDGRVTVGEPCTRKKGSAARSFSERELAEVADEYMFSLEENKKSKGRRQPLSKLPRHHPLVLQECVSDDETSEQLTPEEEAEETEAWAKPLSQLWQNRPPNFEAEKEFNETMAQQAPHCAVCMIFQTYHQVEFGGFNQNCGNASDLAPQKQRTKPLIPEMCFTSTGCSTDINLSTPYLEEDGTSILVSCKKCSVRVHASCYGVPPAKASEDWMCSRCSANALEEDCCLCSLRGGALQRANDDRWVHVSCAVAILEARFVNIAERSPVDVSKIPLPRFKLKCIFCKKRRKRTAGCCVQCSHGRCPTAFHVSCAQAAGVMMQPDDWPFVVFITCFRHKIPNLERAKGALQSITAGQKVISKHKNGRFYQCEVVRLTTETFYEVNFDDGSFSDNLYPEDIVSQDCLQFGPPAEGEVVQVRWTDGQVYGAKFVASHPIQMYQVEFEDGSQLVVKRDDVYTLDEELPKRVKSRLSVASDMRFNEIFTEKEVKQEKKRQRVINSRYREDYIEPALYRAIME
% is set by controls: 0 for no effect and ±100 for the full control effect; potency is the fitted concentration of half-maximal effect; tags give direction and shape of the fitted curve.
Note: nearly all actives have a fitted effect of over 50% in size.

Potency, inconclusive:
COc1ccc(Cc2nc(-c3ccc(-n4cccc4)cc3)no2)cc1OC 89.1 µM [inhibitor, partial curve]
NC(=O)CC(NC(=O)Cc1ccc(Br)cc1)c1ccc(NC2CC3CCC2C3)c([N+](=O)[O-])c1 (stereo not drawn) 25.1 µM [inhibitor, full curve]
COc1ccc(C)cc1NC(=O)/C=C/c1ccc(OC)c(S(=O)(=O)N2CCOCC2)c1 63.1 µM [inhibitor, partial curve, poor fit]
N/C(=N\c1nc2c(c(=O)[nH]1)CCC2)Nc1ccccc1C(F)(F)F 28.2 µM [inhibitor, partial curve]
COc1ccc(NC(=S)N2CCC(Cc3ccccc3)CC2)cc1 50.1 µM [inhibitor, partial curve]
CCOC(=O)C1=C(N)Oc2cc(O)ccc2C1c1ccc(C)cc1 (stereo not drawn) 56.2 µM [inhibitor, partial curve]
CC1CC(C)(C)Nc2ccc(OC(=O)c3ccco3)cc21 (stereo not drawn) 79.4 µM [inhibitor, partial curve]
CN1CCN(c2ccc([N+](=O)[O-])cc2C(=O)c2ccc(Br)cc2)CC1 56.2 µM [inhibitor, partial curve]
COc1ccc(N2CCN(C(=O)c3ccc(NS(=O)(=O)c4ccc(F)cc4)cc3)CC2)cc1 79.4 µM [inhibitor, single point]
CC1=[N+](C)c2ccc3ccccc3c2C1(C)C 50.1 µM [inhibitor, partial curve, poor fit]
O=C(O)C(Cc1c[nH]c2ccccc12)NS(=O)(=O)c1ccc(Cl)c(C(F)(F)F)c1 (stereo not drawn) 39.8 µM [inhibitor, single point]
O=C(NN=C1CCCCCC1)c1ccc(Br)o1 31.6 µM [inhibitor, partial curve]
C/C(=N\OCC(=O)OCC(=O)NCc1ccccc1)c1ccc2c(c1)OCO2 39.8 µM [inhibitor, partial curve]
Cc1cc2[nH]c(=S)[nH]c2cc1C 35.5 µM [inhibitor, single point]
Cc1ccc(C)c(N2CCN(CCCNC(=O)c3ccc4nc(N5CCC(C)CC5)sc4c3)CC2)c1 44.7 µM [inhibitor, partial curve]
CC(C)CCNC(=O)C(c1ccc(O)cc1)N(C(=O)C1COc2ccccc2O1)c1cccc(O)c1 (stereo not drawn) 15.8 µM [inhibitor, full curve]
Cc1cc(C(=O)O)c(CSc2ncn[nH]2)o1 28.2 µM [inhibitor, partial curve]
COc1ccccc1NC(=O)/C=C/C(N)=O 89.1 µM [inhibitor, single point]
CCCCNC(=O)C(CC)Sc1nc2sc(C(=O)OC)c(C)c2c(=O)n1N (stereo not drawn) 89.1 µM [inhibitor, partial curve, poor fit]
CCC(=O)N1c2ccccc2CC1C(=O)NCCN1CCN(c2cc(Cl)ccc2C)CC1 (stereo not drawn) 100 µM [inhibitor, partial curve]
O=c1cc(CSc2nnnn2-c2ccccc2)nc(Nc2ccc(F)cc2)[nH]1 35.5 µM [inhibitor, full curve]
CC(=O)c1ccc(N2CCC(c3cc(-c4ccc(Cl)cc4Cl)n[nH]3)CC2)c([N+](=O)[O-])c1 10 µM [inhibitor, full curve]
Cc1csc2nc(NC(=O)c3ccccc3)sc(=O)c12 70.8 µM [inhibitor, single point]
CC1(C)CC(=O)c2cc(-c3nc(-c4ccc(F)cc4)cs3)c(=O)[nH]c2C1 89.1 µM [inhibitor, single point]
Cc1ccc(NC(=S)c2ccc3ccccc3n2)c(C)c1 39.8 µM [inhibitor, partial curve]
CCN(CC)CCNC(=O)c1ccc(NC(=O)c2cc(-c3ccco3)nc3ccccc23)cc1 22.4 µM [inhibitor, full curve]
C[C@@H](C(=O)NCCc1ccc(F)cc1)N1C(=O)N2CCc3c([nH]c4ccccc34)[C@@]2(C)C1=O 63.1 µM [inhibitor, partial curve]
O=C(COC(=O)c1ccccc1[N+](=O)[O-])Nc1nnc(-c2ccccc2)o1 50.1 µM [inhibitor, partial curve]

Potency, active:
O=C(O)CC(C(=O)O)N1C(=O)/C(=C/c2ccc(-c3nc4ccccc4s3)o2)SC1=S (stereo not drawn) 50.1 µM
O=C(O)Cn1ncc2c1-c1ccoc1CC2 56.2 µM
N#C/C(=C/c1ccc(N2CCCCCC2)o1)c1ccc(Cl)cc1 39.8 µM
COc1ccc(N2CCN(C(=O)c3cccc(Br)c3)CC2)c([N+](=O)[O-])c1 22.4 µM
O=[N+]([O-])c1cc(/C=N/Nc2nc3ccccc3[nH]2)c(O)cc1O 28.2 µM
CCN(CC)Cc1cc(O)c(CN(CC)CC)cc1O 0.794 µM
O=C(NN=C1CCC(=NNC(=O)c2ccccn2)CC1)c1ccccn1 22.4 µM
CCOc1ccc(NC(=O)c2c(NCc3cc(OC)c(OC)cc3OC)sc3c2CCCC3)cc1 25.1 µM
CCCCCCNc1c([N+](=O)[O-])cc(C)cc1[N+](=O)[O-] 12.6 µM
CCCCCCNC(=O)c1cc(-c2ccco2)nc2ccccc12 20 µM
CCCN1CCCc2cc(CN(CCCN3CCOCC3)C(=O)Nc3ccc(Cl)c(Cl)c3)ccc21 12.6 µM

Activity change, negative = inhibition, inactive:
O=C(O)c1ccc(OC(F)(F)C(F)C(F)(F)F)cc1 (stereo not drawn) -6.96%
COC(=O)c1c(NC(=O)c2ccc(C(C)(C)C)cc2)sc2c1CCC(C)C2 (stereo not drawn) 10.5%
O=C(CSc1nnnn1-c1ccccc1)NC(=O)Cc1ccccc1 11.1%
c1ccc2c(NCC3CCCO3)nc(N3CCOCC3)nc2c1 (stereo not drawn) -13.3%
